Data: the supplement of paper PMC10369915
The list shows a part of the results. Cut-off read from the data, not from the text of the source: active = 3.2 or more and inactive = the rest. The signal is at background level for most entries.

Assays:
Assay in all cases: enrichment score (SH2-bound / input frequency) (ratio); bacterial display of known human phosphotyrosine sites (pTyr-Var adds point mutants) read by sequencing; higher = stronger binding; tyrosines were phosphorylated by kinases first
Conditions in all cases: peptide library: pTyr-Var
SHP2 C-SH2 domain E139D = target: SHP2 C-SH2 domain E139D
[1] = target: SHP2 C-SH2 domain wild-type
SHP2 N-SH2 domain L43F = target: SHP2 N-SH2 domain L43F
SHP2 N-SH2 domain T42A = target: SHP2 N-SH2 domain T42A
SHP2 N-SH2 domain T52S = target: SHP2 N-SH2 domain T52S
[2] = target: SHP2 N-SH2 domain wild-type

Measured: enrichment score
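Note: displayed peptides selected on beads carrying the immobilized SH2 domain, with library peptides lacking any tyrosine serving as negative controls.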

TFGVVYKARNK [CDK2_Y19_YF]
inactive: SHP2 C-SH2 domain E139D 0.421 | [1] 0.505 | SHP2 N-SH2 domain L43F 0.378 | SHP2 N-SH2 domain T42A 0.384 | SHP2 N-SH2 domain T52S 0.311 | [2] 0.363

RSRSPYSPVLR [CDK13_Y399]
inactive: SHP2 C-SH2 domain E139D 0.387 | [1] 0.588 | SHP2 N-SH2 domain L43F 0.425 | SHP2 N-SH2 domain T42A 0.155 | SHP2 N-SH2 domain T52S 0.289 | [2] 0.325

DIPIRYSITGV [CDH4_Y205]
inactive: SHP2 C-SH2 domain E139D 0.897 | [1] 0.816 | SHP2 N-SH2 domain L43F 0.792 | SHP2 N-SH2 domain T42A 0.808 | SHP2 N-SH2 domain T52S 0.865 | [2] 0.873

ICGVSYDEFRF [CFTR_Y512_F508C_YF]
inactive: SHP2 C-SH2 domain E139D 1.2 | [1] 1.55 | SHP2 N-SH2 domain L43F 1.27 | SHP2 N-SH2 domain T42A 1.15 | SHP2 N-SH2 domain T52S 1.19 | [2] 1.51

SDRNLYSKNLV [CFAP58_Y501]
inactive: SHP2 C-SH2 domain E139D 0.648 | [1] 0.667 | SHP2 N-SH2 domain L43F 0.669 | SHP2 N-SH2 domain T42A 0.653 | SHP2 N-SH2 domain T52S 0.493 | [2] 0.69

ERPIRYLNHQL [CEP152_Y268_Q265P]
inactive: SHP2 C-SH2 domain E139D 0.767 | [1] 0.717 | SHP2 N-SH2 domain L43F 0.636 | SHP2 N-SH2 domain T42A 1.1 | SHP2 N-SH2 domain T52S 0.665 | [2] 0.692

AVLQLYIFVAT [CFTR_Y1014_P1013L]
inactive: SHP2 C-SH2 domain E139D 0.918 | [1] 1.27 | SHP2 N-SH2 domain L43F 0.798 | SHP2 N-SH2 domain T42A 0.947 | SHP2 N-SH2 domain T52S 1.22 | [2] 1.14

IFGVSYGEYRY [CFTR_Y512_D513G]
inactive: SHP2 C-SH2 domain E139D 2.33 | [1] 2.19 | SHP2 N-SH2 domain L43F 2.2 | SHP2 N-SH2 domain T42A 1.85 | SHP2 N-SH2 domain T52S 2.36 | [2] 2.28

NDKLRYEVSSP [CDH13_Y66]
inactive: SHP2 C-SH2 domain E139D 0.411 | [1] 0.604 | SHP2 N-SH2 domain L43F 0.579 | SHP2 N-SH2 domain T42A 0.411 | SHP2 N-SH2 domain T52S 0.474 | [2] 0.482

SSEILYHIIKG [CDH17_Y489_K486E]
inactive: SHP2 C-SH2 domain E139D 1.44 | [1] 1.26 | SHP2 N-SH2 domain L43F 1.14 | SHP2 N-SH2 domain T42A 1.11 | SHP2 N-SH2 domain T52S 1.04 | [2] 1.14

VATRWYRSPEP [CDKL5_Y177_L182P]
inactive: SHP2 C-SH2 domain E139D 0.874 | [1] 0.632 | SHP2 N-SH2 domain L43F 0.578 | SHP2 N-SH2 domain T42A 0.672 | SHP2 N-SH2 domain T52S 0.687 | [2] 0.639

TINPIYEHVGF [CHN1_Y143_YF]
inactive: SHP2 C-SH2 domain E139D 0.933 | [1] 0.694 | SHP2 N-SH2 domain L43F 0.983 | SHP2 N-SH2 domain T42A 0.873 | SHP2 N-SH2 domain T52S 0.87 | [2] 0.837

GGSSPYSRRLP [CDK13_Y351]
inactive: SHP2 C-SH2 domain E139D 0.247 | [1] 0.275 | SHP2 N-SH2 domain L43F 0.278 | SHP2 N-SH2 domain T42A 0.281 | SHP2 N-SH2 domain T52S 0.282 | [2] 0.391

EQMLEYMGQLQ [CFAP45_Y289_E291G]
inactive: SHP2 C-SH2 domain E139D 0.773 | [1] 0.74 | SHP2 N-SH2 domain L43F 0.863 | SHP2 N-SH2 domain T42A 0.682 | SHP2 N-SH2 domain T52S 0.778 | [2] 0.737

ANYTEYVATSW [CDKL5_Y171_R175S]
inactive: SHP2 C-SH2 domain E139D 0.968 | [1] 0.902 | SHP2 N-SH2 domain L43F 0.924 | SHP2 N-SH2 domain T42A 1.11 | SHP2 N-SH2 domain T52S 0.986 | [2] 1

IQKKFYRAILE [CHD7_Y1218_YF]
inactive: SHP2 C-SH2 domain E139D 1.18 | [1] 1.01 | SHP2 N-SH2 domain L43F 0.861 | SHP2 N-SH2 domain T42A 0.789 | SHP2 N-SH2 domain T52S 0.95 | [2] 0.798

NDKLCYEVSSP [CDH13_Y66_R65C]
inactive: SHP2 C-SH2 domain E139D 0.737 | [1] 0.861 | SHP2 N-SH2 domain L43F 0.644 | SHP2 N-SH2 domain T42A 0.567 | SHP2 N-SH2 domain T52S 0.463 | [2] 1.01

YDEYRYRSFIK [CFTR_Y517_V520F]
inactive: SHP2 C-SH2 domain E139D 1.01 | [1] 0.84 | SHP2 N-SH2 domain L43F 0.929 | SHP2 N-SH2 domain T42A 0.832 | SHP2 N-SH2 domain T52S 0.842 | [2] 0.845

VFGVSYDEFRF [CFTR_Y512_I507V_YF]
inactive: SHP2 C-SH2 domain E139D 2.06 | [1] 1.91 | SHP2 N-SH2 domain L43F 1.65 | SHP2 N-SH2 domain T42A 2.32 | SHP2 N-SH2 domain T52S 1.82 | [2] 1.48

LQLLGDRPVYS [CHST6_Y358_Y358D]
inactive: SHP2 C-SH2 domain E139D 1.22 | [1] 0.91 | SHP2 N-SH2 domain L43F 1.57 | SHP2 N-SH2 domain T42A 1.18 | SHP2 N-SH2 domain T52S 1.41 | [2] 1.54

AAFNRYDQERF [CDC73_Y293_YF]
inactive: SHP2 C-SH2 domain E139D 0.824 | [1] 0.714 | SHP2 N-SH2 domain L43F 0.85 | SHP2 N-SH2 domain T42A 0.548 | SHP2 N-SH2 domain T52S 0.882 | [2] 0.911

FQEKGYNKELR [CHRND_Y38]
inactive: SHP2 C-SH2 domain E139D 0.977 | [1] 0.925 | SHP2 N-SH2 domain L43F 0.873 | SHP2 N-SH2 domain T42A 1.12 | SHP2 N-SH2 domain T52S 0.871 | [2] 0.919

ALAAPYVLYPG [CEFIP_Y1332]
inactive: SHP2 C-SH2 domain E139D 1.17 | [1] 0.865 | SHP2 N-SH2 domain L43F 1.08 | SHP2 N-SH2 domain T42A 0.78 | SHP2 N-SH2 domain T52S 0.867 | [2] 0.952

EKKDVYKAGEQ [CFH_Y1008]
inactive: SHP2 C-SH2 domain E139D 0.454 | [1] 0.579 | SHP2 N-SH2 domain L43F 0.482 | SHP2 N-SH2 domain T42A 0.55 | SHP2 N-SH2 domain T52S 0.525 | [2] 0.497

IGERTYGQVFK [CDK13_Y716_G714R_YF]
inactive: SHP2 C-SH2 domain E139D 0.973 | [1] 0.913 | SHP2 N-SH2 domain L43F 0.797 | SHP2 N-SH2 domain T42A 0.71 | SHP2 N-SH2 domain T52S 0.687 | [2] 1.07

PIPAAYNKYDQ [CDC73_Y290_R292K]
inactive: SHP2 C-SH2 domain E139D 0.482 | [1] 0.827 | SHP2 N-SH2 domain L43F 0.861 | SHP2 N-SH2 domain T42A 1.58 | SHP2 N-SH2 domain T52S 0.962 | [2] 0.903

IFGVSYDEYRY [CFTR_Y512]
inactive: SHP2 C-SH2 domain E139D 1.68 | [1] 1.57 | SHP2 N-SH2 domain L43F 1.71 | SHP2 N-SH2 domain T42A 1.75 | SHP2 N-SH2 domain T52S 1.88 | [2] 1.76

IFHENYNAGTF [CFI_Y421_YF]
inactive: SHP2 C-SH2 domain E139D 1.03 | [1] 0.893 | SHP2 N-SH2 domain L43F 0.897 | SHP2 N-SH2 domain T42A 0.734 | SHP2 N-SH2 domain T52S 0.983 | [2] 0.798

LQLLGHRPVFS [CHST6_Y358_Y358H_YF]
inactive: SHP2 C-SH2 domain E139D 1.36 | [1] 1.41 | SHP2 N-SH2 domain L43F 1.19 | SHP2 N-SH2 domain T42A 1.03 | SHP2 N-SH2 domain T52S 1.69 | [2] 1.21

NIQKKYFRAIL [CHD7_Y1217_YF]
inactive: SHP2 C-SH2 domain E139D 1.07 | [1] 0.874 | SHP2 N-SH2 domain L43F 0.7 | SHP2 N-SH2 domain T42A 0.657 | SHP2 N-SH2 domain T52S 0.95 | [2] 1.21

AIIGIYNLRDD [CDH23_Y2949_I2950N]
inactive: SHP2 C-SH2 domain E139D 2.05 | [1] 2.12 | SHP2 N-SH2 domain L43F 2.42 | SHP2 N-SH2 domain T42A 1.98 | SHP2 N-SH2 domain T52S 2.23 | [2] 2.06

PLEGKYEWQEV [CDKN1B_Y74]
inactive: SHP2 C-SH2 domain E139D 1.01 | [1] 1.1 | SHP2 N-SH2 domain L43F 1.31 | SHP2 N-SH2 domain T42A 0.736 | SHP2 N-SH2 domain T52S 1.47 | [2] 1.09

EQMLEYMEQLQ [CFAP45_Y289]
inactive: SHP2 C-SH2 domain E139D 0.683 | [1] 0.555 | SHP2 N-SH2 domain L43F 0.579 | SHP2 N-SH2 domain T42A 0.508 | SHP2 N-SH2 domain T52S 0.591 | [2] 0.633

AIIGIYILRDN [CDH23_Y2949_D2954N]
inactive: SHP2 C-SH2 domain E139D 2.92 | SHP2 N-SH2 domain L43F 2.55 | SHP2 N-SH2 domain T42A 2.64 | SHP2 N-SH2 domain T52S 2.33 | [2] 2.87
active: [1] 3.36

HMRLRYLAAEE [CEP120_Y884_Q879H]
inactive: SHP2 C-SH2 domain E139D 2.54 | [1] 2.22 | SHP2 N-SH2 domain L43F 2.57 | SHP2 N-SH2 domain T42A 1.9 | SHP2 N-SH2 domain T52S 2.69 | [2] 2.26

TINPIYEHVGY [CHN1_Y143]
inactive: SHP2 C-SH2 domain E139D 0.806 | [1] 0.683 | SHP2 N-SH2 domain L43F 0.926 | SHP2 N-SH2 domain T42A 0.595 | SHP2 N-SH2 domain T52S 0.777 | [2] 0.89

EAKENYGKTLK [CHL1_Y291_T287A]
inactive: SHP2 C-SH2 domain E139D 0.513 | [1] 0.587 | SHP2 N-SH2 domain L43F 0.472 | SHP2 N-SH2 domain T42A 0.45 | SHP2 N-SH2 domain T52S 0.431 | [2] 0.527
